The campaign covered roughly 3,200 compounds. About 110 (3.4%) showed an effect of 50% or more. The list shows a part of the results.
These compounds were tested on T1, V. cholerae SAD30. Conditions: relative growth, OD600, LB; 25 µM; inhibitor.
T1 construct: SAD30
Parameters: species or system S. aureus MSSA476 (TSB) or V. cholerae SAD30 (LB); 384-well bacterial growth screen at 25 uM, OD600 relative to DMSO control

Row | SMILES | % of control remaining [%]
1 | Cc1cc(C2CCCN2C(=O)C(C)Cl)no1 (stereo not drawn) [7-D19, 2-chloro-1-[2-(5-methyl-1,2-oxazol-3-yl)pyrrolidin-1-yl]propan-1-one] | 82.868
2 | CC(Cl)C(=O)N(CCc1ccc(F)cc1F)C(C)C (stereo not drawn) [6-D18, 2-chloro-N-[2-(2,4-difluorophenyl)ethyl]-N-(propan-2-yl)propanamide] | 71.5897
3 | C=CC(=O)N(Cc1c2c(nn1C)CCOC2)c1cc(C)cc(C)c1 [2-A07, N-(3,5-dimethylphenyl)-N-({2-methyl-2H,4H,6H,7H-pyrano[4,3-c]pyrazol-3-yl}methyl)prop-2-enamide] | 93.5926
4 | CCCn1c(N)c(C(=O)CCl)c(=O)n(C)c1=O [10-H12, 6-amino-5-(2-chloroacetyl)-3-methyl-1-propyl-1,2,3,4-tetrahydropyrimidine-2,4-dione] | 94.4477
5 | CC(Cl)C(=O)NC1CCN(c2nnnn2C)CC1 (stereo not drawn) [7-K08, 2-chloro-N-[1-(1-methyl-1H-1,2,3,4-tetrazol-5-yl)piperidin-4-yl]propanamide] | 79.696
6 | Cc1ccc(C)c(NC(=O)C(C#N)=Cc2ccc(N3CCCCC3)o2)c1 [9-D12, 2-cyano-N-(2,5-dimethylphenyl)-3-[5-(piperidin-1-yl)furan-2-yl]prop-2-enamide] | 54.4528
7 | CC(C)Oc1ccc2[nH]cc(C(=O)CCl)c2c1 [10-E03, 2-chloro-1-[5-(propan-2-yloxy)-1H-indol-3-yl]ethan-1-one] | 105.669
8 | CCCCNC(=O)C(C#N)=Cc1cccs1 [9-E17, N-butyl-2-cyano-3-(thiophen-2-yl)prop-2-enamide] | 70.9041
9 | CC(Cl)C(=O)N[C@H]1CCC(=O)N[C@@H]1c1ccnn1C (mixture of isomers) [6-B14, rac-2-chloro-N-[(2R,3R)-2-(1-methyl-1H-pyrazol-5-yl)-6-oxopiperidin-3-yl]propanamide] | 89.1838
10 | C=CC(=O)N(CC1CCOCC1)C1CC1 [2-I08, N-cyclopropyl-N-[(oxan-4-yl)methyl]prop-2-enamide] | 89.7327
11 | C=CC(=O)N1CCC(C(=O)N2CCC(NC(=O)NC)CC2)CC1 [2-H18, 3-methyl-1-{1-[1-(prop-2-enoyl)piperidine-4-carbonyl]piperidin-4-yl}urea] | 91.4311
12 | C=CC(=O)NCC1CCN(C)C1=O (stereo not drawn) [2-B05, N-[(1-methyl-2-oxopyrrolidin-3-yl)methyl]prop-2-enamide] | 96.9893
13 | O=C(CCl)Nc1c(Cl)cccc1C(F)(F)F [5-B04, 2-chloro-N-[2-chloro-6-(trifluoromethyl)phenyl]acetamide] | 98.0141
14 | N#C/C(C(=O)Nc1ccc(C(F)(F)F)cc1)=C(/O)C1CC1 [9-N22, (2Z)-2-cyano-3-cyclopropyl-3-hydroxy-N-[4-(trifluoromethyl)phenyl]prop-2-enamide] | 87.0836
15 | C=CC(=O)NCCS(=O)(=O)N1CCOCC1 [2-E14, N-[2-(morpholine-4-sulfonyl)ethyl]prop-2-enamide] | 95.4453
16 | CCOc1ccc(C=C(C#N)C(=O)Nc2cccc3ncccc23)cc1 [8-A07, 2-cyano-3-(4-ethoxyphenyl)-N-(quinolin-5-yl)prop-2-enamide] | 90.0748
17 | C=CC(=O)N1CCn2cccc2C1c1ccncc1 (stereo not drawn) [3-M03, 1-[1-(pyridin-4-yl)-1H,2H,3H,4H-pyrrolo[1,2-a]pyrazin-2-yl]prop-2-en-1-one] | 109.557
18 | C=CC(=O)NC1CCS(=O)(=O)C(C)C1 (stereo not drawn) [3-A10, N-(2-methyl-1,1-dioxo-1lambda6-thian-4-yl)prop-2-enamide] | 115.203
19 | C=CCNC(=O)C(C#N)=Cc1ccc(-c2ccc(F)cc2)s1 [9-C12, 2-cyano-3-[5-(4-fluorophenyl)thiophen-2-yl]-N-(prop-2-en-1-yl)prop-2-enamide] | 81.1013
20 | C=CC(=O)NCC(C)(C)C1(O)CCOC1 (stereo not drawn) [3-K13, N-[2-(3-hydroxyoxolan-3-yl)-2-methylpropyl]prop-2-enamide] | 90.8546
21 | O=C(CCl)Nc1nnc(SCc2ccccc2)s1 [4-F15, N-[5-(benzylsulfanyl)-1,3,4-thiadiazol-2-yl]-2-chloroacetamide] | 93.1637
22 | N#CC(=CC=Cc1ccccc1[N+](=O)[O-])C(=O)Nc1ccccc1 [8-P20, 2-cyano-5-(2-nitrophenyl)-N-phenylpenta-2,4-dienamide] | 83.4126
23 | CC(Cl)C(=O)Nc1ncc(C(F)(F)F)cc1Cl (stereo not drawn) [5-L22, 2-chloro-N-[3-chloro-5-(trifluoromethyl)pyridin-2-yl]propanamide] | 106.42

Row | SMILES | % of control remaining [%]
24 | COCCNC(=O)C(C#N)=Cc1sccc1C [9-M17, 2-cyano-N-(2-methoxyethyl)-3-(3-methylthiophen-2-yl)prop-2-enamide] | 85.9959
25 | Cc1cccc(CC(=O)CCl)c1 [10-I19, 1-chloro-3-(3-methylphenyl)propan-2-one] | 92.7333
26 | Cn1cc(C=C(C#N)C(=O)Nc2ccccc2F)c(-c2ccncc2)n1 [9-L15, 2-cyano-N-(2-fluorophenyl)-3-[1-methyl-3-(pyridin-4-yl)-1H-pyrazol-4-yl]prop-2-enamide] | 89.6669
27 | CC(C)NS(=O)(=O)c1ccc(NC(=O)C(C)Cl)cc1 (stereo not drawn) [6-B10, 2-chloro-N-{4-[(propan-2-yl)sulfamoyl]phenyl}propanamide] | 81.7518
28 | CN(CCOc1ccccc1F)C(=O)CCl [6-C03, 2-chloro-N-[2-(2-fluorophenoxy)ethyl]-N-methylacetamide] | 107.84
29 | COc1cc(CN(C(=O)CCl)C2CC2)ccc1O [7-H18, 2-chloro-N-cyclopropyl-N-[(4-hydroxy-3-methoxyphenyl)methyl]acetamide] | 76.9205
30 | CN(C(=O)CCl)C1CCN(c2ccccc2F)C1=O (stereo not drawn) [5-A18, 2-chloro-N-[1-(2-fluorophenyl)-2-oxopyrrolidin-3-yl]-N-methylacetamide] | 104.066
31 | COc1ccc(OC)c(NC(=O)CCl)c1 [6-O04, 2-chloro-N-(2,5-dimethoxyphenyl)acetamide] | 96.0091
32 | CC(Cl)C(=O)N1CCCC(n2ncc(N(C)C(C)C)cc2=O)C1 (stereo not drawn) [6-H09, 2-[1-(2-chloropropanoyl)piperidin-3-yl]-5-[methyl(propan-2-yl)amino]-2,3-dihydropyridazin-3-one] | 92.3689
33 | C=CC(=O)Nc1ccc(S(=O)(=O)N(C)C)c(C)c1 [2-E06, N-[4-(dimethylsulfamoyl)-3-methylphenyl]prop-2-enamide] | 93.4382
34 | Cc1ccc(C(NC(=O)CCl)c2cccs2)cc1 (stereo not drawn) [4-H16, 2-chloro-N-[(4-methylphenyl)(thiophen-2-yl)methyl]acetamide] | 105.758
35 | Cc1cc(C(=O)CCl)c(C)s1 [10-K16, 2-chloro-1-(2,5-dimethylthiophen-3-yl)ethan-1-one] | 28.6772
36 | C=CC(=O)N[C@H]1C[C@H](C)S(=O)(=O)c2sccc21 [3-C14, N-[(2S,4S)-2-methyl-1,1-dioxo-2H,3H,4H-1lambda6-thieno[2,3-b]thiopyran-4-yl]prop-2-enamide] | 101.617
37 | C=CC(=O)N(CC)CC(=O)N1CC(C)(C)C1c1nccn1C (stereo not drawn) [2-J16, N-{2-[3,3-dimethyl-2-(1-methyl-1H-imidazol-2-yl)azetidin-1-yl]-2-oxoethyl}-N-ethylprop-2-enamide] | 90.3503
38 | C=CC(=O)N1CCCC1c1nc(N(C)C)no1 (stereo not drawn) [2-C21, 1-{2-[3-(dimethylamino)-1,2,4-oxadiazol-5-yl]pyrrolidin-1-yl}prop-2-en-1-one] | 105.481
39 | CC(Cl)C(=O)NCc1cccc(Cn2cnc3ccccc32)c1 (stereo not drawn) [6-O16, N-({3-[(1H-1,3-benzodiazol-1-yl)methyl]phenyl}methyl)-2-chloropropanamide] | 90.2455
40 | C=CC(=O)N1CCC(c2noc3cc(F)ccc23)CC1 [3-I07, 1-[4-(6-fluoro-1,2-benzoxazol-3-yl)piperidin-1-yl]prop-2-en-1-one] | 89.796
41 | CC(Cl)C(=O)NCCC1(C)OCCO1 (stereo not drawn) [7-E17, 2-chloro-N-[2-(2-methyl-1,3-dioxolan-2-yl)ethyl]propanamide] | 77.7135
42 | CC(Cl)C(=O)Nc1cc([N+](=O)[O-])ccc1Cl (stereo not drawn) [6-I14, 2-chloro-N-(2-chloro-5-nitrophenyl)propanamide] | 87.6671
43 | CC(Cl)C(=O)NC(=O)Nc1ccc2c(c1)OCCO2 (stereo not drawn) [5-D08, 3-(2-chloropropanoyl)-1-(2,3-dihydro-1,4-benzodioxin-6-yl)urea] | 90.4487
44 | O=C(CCl)Nc1ccc(OC(F)F)c(Cl)c1 [4-F14, 2-chloro-N-[3-chloro-4-(difluoromethoxy)phenyl]acetamide] | 82.9847
45 | C=CC(=O)NCCC(=O)N1CCCN(C(=O)c2ccccc2F)CC1 [2-D20, N-{3-[4-(2-fluorobenzoyl)-1,4-diazepan-1-yl]-3-oxopropyl}prop-2-enamide] | 96.9893

From PMC11995724, “Antibiotic target discovery by integrated phenotypic and activity-based profiling of electrophilic fragments” (Cell chemical biology, 2025)
